The other results are listed elsewhere or left out. For some assays here: At the low end of the ranking, values are background and their order means little. For some assays here: The protein was read in a cell extract, so binding may be indirect.
Tests used:
Conditions in all cases: 20 mM HEPES pH 7.9, 100 mM NaCl, 1 mM DTT, 0.2 mg/mL BSA, 0.02% Triton X-100, 2% milk, 0.4 mg/mL salmon testes DNA; 1 h; temperature not stated; high values mean tight binding; double strand, one strand shown; sequences stand for … in GCCTAGCAC…GTGCTAGGTCTTGATTCGCTTGACGCTGCTG
PU.1 (IVT) = PU.1 (IVT) (UniProt P17947); experiment: protein-binding microarray (PBM)
[1] = molecular target: PU.1 (endogenous, THP-1 nuclear extract) (UniProt P17947); experiment: nuclear extract protein-binding microarray (nextPBM)
[2] = molecular target: T1, FLI1 (endogenous, THP-1 nuclear extract) (UniProt Q01543); experiment: as above
T1 sequence: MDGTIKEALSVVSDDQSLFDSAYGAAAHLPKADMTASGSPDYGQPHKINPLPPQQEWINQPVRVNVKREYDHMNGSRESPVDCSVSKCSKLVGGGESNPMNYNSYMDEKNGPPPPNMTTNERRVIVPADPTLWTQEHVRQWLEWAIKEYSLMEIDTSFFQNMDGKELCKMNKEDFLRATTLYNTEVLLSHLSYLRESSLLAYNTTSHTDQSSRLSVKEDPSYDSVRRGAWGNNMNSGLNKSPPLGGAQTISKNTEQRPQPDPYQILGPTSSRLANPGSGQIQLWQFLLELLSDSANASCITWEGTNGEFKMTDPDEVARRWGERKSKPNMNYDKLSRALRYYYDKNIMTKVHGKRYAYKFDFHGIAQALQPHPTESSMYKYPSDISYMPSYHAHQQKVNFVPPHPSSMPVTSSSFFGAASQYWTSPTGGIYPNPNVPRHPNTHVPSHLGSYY

[3] = system: PU.1 (endogenous, THP-1 nuclear extract) + IRF8 (endogenous, THP-1 nuclear extract); experiment: as above

| Sequence | binding signal (PU.1 (IVT)) [z-score] | binding signal [1] [z-score] | binding signal [2] [z-score] | binding signal [3] [z-score] |
| --- | --- | --- | --- | --- |
| CGGATGAGGGAACATTCTGC | 0.52 | 0.559 | 3.11 | -1.6 |
| TCCCAGGCAATCTACTCTTT | -0.646 | -0.0563 | -0.258 | -0.0505 |
| ATCACTATGATTTCATTCCC | -0.456 | -0.37 | -0.377 | -0.995 |
| CTGCATCCACCCTCTGCCCT | -0.818 | 0.00483 | -0.0546 | 2.72 |
| CCACTATCTCTGCACTCCTG | -0.545 | -0.148 | -0.0146 | -0.161 |
| GATATCCCAACTCAGAGGTC | -0.579 | -0.41 | -0.195 | -0.142 |
| GAAGCAGAGATTAAAGTAAA | -0.32 | -0.596 | -0.393 | -0.464 |
| TTTGGAACTGCCTGAAACCA | 0.0102 | -0.345 | 0.0717 | 0.283 |
| TTATATGAAATGTCCAGGAG | -0.486 | -0.0748 | 0.238 | -0.494 |
| AGGTGATCTGCCCACCTCAG | -0.382 | -0.304 | -0.56 | 0.462 |
| AAGTTTCATAGAGGTCATGA | -0.659 | -0.709 | -0.403 | 2.31 |
| CATCCCTCTTAGGGGTCCAG | -0.466 | -0.15 | 0.0102 | 1.01 |
| AGAAGAACTGCGTGAAAGTG | -0.752 | -0.185 | -0.329 | 1.88 |
| AAAGACGCTGTCTAAAATAT | 0.0148 | -0.0468 | -0.29 | -0.715 |
| ACAGAAATTTTAGAAATATC | -0.111 | -0.74 | -0.233 | -0.0036 |
| TCTGGTTTCACACCTAAATA | 0.00568 | -0.371 | -0.171 | 6.95 |
| GTAAAATGGGAGTTTCTCAG | -0.279 | -0.524 | 0.105 | 0.45 |
| GTTAAAATTTTTAAAATATG | 0.203 | -0.931 | 0.404 | -1.56 |
| TGCCAGGCACACAGCAGGTC | -0.847 | -0.291 | -0.232 | 0.322 |
| CTCCACACTCACCATTCTGA | -0.74 | -0.488 | -0.783 | 0.493 |
| TCCAGGACTGCCTGAAAGCT | -0.402 | -0.12 | -0.228 | -1.21 |
| AGTGTGGCATAAAATGTCAA | 0.0531 | -0.253 | -0.672 | -1.93 |
| TTTTTAGCTGCGTGAAACTA | -0.239 | -0.567 | -0.501 | 2.96 |
| CTCGAAAATGTGGGAAGTCT | 3.26 | 2.44 | 1.28 | -0.467 |

| Sequence | binding signal (PU.1 (IVT)) [z-score] | binding signal [1] [z-score] | binding signal [2] [z-score] | binding signal [3] [z-score] |
| --- | --- | --- | --- | --- |
| ATCCAGCAAGAGAATAAAAT | 0.0846 | -0.266 | 0.24 | -0.862 |
| TCAGCCCTCGGGTGGATAGT | -0.094 | 0.00504 | -0.745 | 0.496 |
| TTACATGGATGGGGATGTGG | 0.84 | 1.06 | 0.577 | 0.0452 |
| CAAACAGGAAACCAGTTTAC | 1.07 | 1.23 | 4.15 | 0.969 |
| ATCTGAAGTATTTACTCTCG | 0.0171 | -0.34 | -0.527 | 0.657 |
| GCTCGCTCTCTCCGGGCGTT | -0.375 | -0.289 | -0.593 | 0.435 |
| GGTGAATTATATGCTCTGTA | -0.231 | -0.434 | -0.299 | 1.13 |
| AGCGCCACGCCCAGGTGTCC | -0.461 | -0.509 | -0.453 | 0.257 |
| AGGTGCCCTTATAGGCAAAG | -0.384 | -0.201 | -0.323 | -1.24 |
| TAGTCAGGATTCTCTCTAAC | -0.716 | -0.406 | -0.497 | -0.257 |
| ATAATTATATGAATGTGGTC | -0.503 | -0.285 | -0.118 | 1.57 |
| TATCTAAATGGATCTGGTTT | -0.0351 | -0.229 | 0.0508 | -0.367 |
| GCAATGAGCCACGTGAACCT | -0.73 | -0.336 | -0.607 | 0.512 |
| CCTCTTGCCTACATTTCTCC | -0.17 | -0.126 | -0.23 | 0.0237 |
| AAATTTGCTACAAGGAACGT | 0.659 | 0.472 | 0.134 | -0.439 |
| TTGGACGAGAAACTGGGTTT | 0.225 | -0.206 | 0.0699 | 1.74 |
| GCTTTAGCTGCCTGAAAGCG | -0.439 | -0.69 | -0.698 | -1.08 |
| TGAAATAATCCTGAGCTTTT | -0.456 | -0.431 | -0.236 | -0.0178 |
| CGGGAGCCTTGTGGCGAAAA | -0.807 | -0.681 | -0.0261 | -0.246 |
| CTGGGGTTTTGTTTAGATAG | -0.293 | -0.517 | -0.245 | 0.437 |
| TCCTGGACAAAAGGGATGTG | 1.6 | 1.07 | 1.62 | 0.0349 |
| TGAATCCCGAAACACTCTAG | -0.322 | -0.649 | 0.121 | 0.888 |
| TGGGCCCTGGTACTGAAGAC | -0.942 | -0.283 | -0.775 | 0.469 |
| TTAATGAGTTCAGAGTTTCA | -0.429 | -0.291 | -0.135 | 1.98 |

| Sequence | binding signal (PU.1 (IVT)) [z-score] | binding signal [1] [z-score] | binding signal [2] [z-score] | binding signal [3] [z-score] |
| --- | --- | --- | --- | --- |
| TTTGAGTAGCAAGAGGTTAG | -0.0639 | -0.347 | 0.122 | 0.777 |
| CTACTGTTTCTGCTTGTTTC | 0.0176 | 0.024 | -0.169 | 0.596 |
| ACAAAAATACTATCTGACAC | -0.343 | -0.588 | -0.574 | -0.401 |
| CGGCCGCGAAGCAGAGCGGG | -0.727 | 0.198 | 0.439 | 1.53 |
| GATAAAATTCAAACCTTCAA | 0.752 | -0.267 | -0.161 | -0.203 |
| GCTTCCTCTGCTTTAAATTC | 2.37 | 2.09 | 2.37 | -0.003 |
| TTTCAAGATACCAATGTGAA | -0.0469 | 0.0293 | 0.0495 | -0.415 |
| CTTCCCAAATAGGCTGAGTT | 0.617 | 0.6 | 0.0342 | -0.0695 |
| TGCAGGTCTGCGTGAAACTG | 0.213 | -0.0555 | 0.297 | 2.97 |
| GCACTATAGGGTGACTATAG | -0.461 | -0.171 | -0.205 | 0.221 |
| GTCAAAAAAAGGAAAAAGCC | 0.885 | 0.316 | 0.857 | -1.94 |
| AGCACTTTTAATTGGCAGAG | -0.105 | -0.326 | -0.0545 | -0.498 |
| CCTCTCTGACACCTCAAAAT | 0.121 | -0.635 | -0.365 | -0.277 |
| TTTTTTTTTTTTTTTTGAGA | -0.261 | -0.427 | -0.0563 | -1.08 |
| CACAACCCTCAGCAAATCTT | -0.717 | -0.42 | -0.472 | -0.836 |
| CTGTGACTCAGCACTGAGTT | -0.323 | -0.616 | -0.364 | 1.47 |
| TTTTAAATTGCATGCCATTT | -0.0896 | -0.325 | -0.0864 | -0.173 |
| TGGAGCCAAGATTTCATTGG | -0.494 | -0.2 | -0.625 | -0.0396 |
| AAGGATGCTGCGTGAAAGTG | -0.376 | -0.213 | 0.513 | 1.56 |
| TGCTGACGTGGGGGTGGTTG | -0.353 | -0.155 | -0.525 | 0.357 |
| TATTTCCATAGCTAATACAA | 0.409 | -0.428 | 0.444 | 0.0522 |
| CGGCGTCATGCTAACTTCTG | -0.478 | -0.199 | 0.389 | 1.55 |
| CCAGACTCTAGGGCCAGCCT | -0.612 | -0.287 | -0.474 | -0.0167 |

From PMC6451091
